Test results taken from PubChem BioAssay AID485281 (National Center for Advancing Translational Sciences (NCATS), 2010).
Screen size: about 350,000 compounds; about 260 (0.074%) were called active. The shares of active, inactive and inconclusive entries below differ from those in the screen. Calls follow the shape of the dose curve; as a rule, active = well fitted inhibition curve with a large enough effect; inconclusive = small, poorly fitted or top-dose-only effect; inactive = no such curve, though single readings can be large or run the other way. Potencies of inconclusive entries are doubtful fits and often do not repeat.

These compounds were tested against Ferritin light chain (Equus caballus) (UniProt P02791) (assay: qHTS Assay for Identification of Novel General Anesthetics). Conditions: apoferritin/1-aminoanthracene competitive binding, fluorescence; activity change, negative = displacement: at 77.5 µM (top of the series).
UniProt P02791, sequence (P02791 whole entry, looked up): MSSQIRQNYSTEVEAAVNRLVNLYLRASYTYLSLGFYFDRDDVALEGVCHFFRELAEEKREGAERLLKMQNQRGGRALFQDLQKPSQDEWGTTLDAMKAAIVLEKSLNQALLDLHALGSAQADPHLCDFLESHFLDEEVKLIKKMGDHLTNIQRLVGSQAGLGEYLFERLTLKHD
Method in brief: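 Horse-spleen apoferritin (10 uM) was mixed with 50% saturated 1-aminoanthracene in PBS, exposed to compounds for 10 min at room temperature, and read for fluorescence (ex 380 nm, em 535 nm). Competitive displacement was fitted with a four-parameter Hill equation.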
% is scaled to controls: 0 for no effect and ±100 for the full control effect; potency is read from the fitted curve at half-maximal effect; tags tell the direction and shape of the fitted curve.
Also: nearly all actives have a fitted effect of over 20% in size.

Potency, inactive:
O=C(NC1CCCC1)c1ccc(CSc2nc3ccncc3n2Cc2ccc(F)cc2)cc1

Potency, active:
Cc1cccc(NC(=O)c2ccc(NCC3CCCO3)c([N+](=O)[O-])c2)n1 (stereo not drawn) 28.2 µM

Potency, inconclusive:
O=C(ON=C1CCN(S(=O)(=O)c2ccccc2)CC1)c1ccccc1 28.2 µM [inhibitor, single point], CCOC(=O)C1CCCN(C(=O)c2ccc3c(=O)n(Cc4ccccc4OC)c(=S)[nH]c3c2)C1 (stereo not drawn) 14.1 µM [inhibitor, partial curve], COc1cccc(-c2cc(C(=O)N3N=C(C)CC3(O)C(F)F)c3ccccc3n2)c1 (stereo not drawn) 11.2 µM [inhibitor, partial curve], CC(C)CC(=O)Nc1cccc(-c2nc3ccccc3o2)c1 28.2 µM [inhibitor, single point], Cc1ccccc1CSc1[nH]c(=O)ncc1C 15.8 µM [inhibitor, partial curve], CCOC(=O)C1CCCN(C(=O)c2cc(Cl)ccc2Cl)C1 (stereo not drawn) 20 µM [inhibitor, partial curve], Cc1ccc(N2C(=O)c3ccccc3C2Nc2ccccc2F)nc1 (stereo not drawn) 11.2 µM [inhibitor, partial curve], Cc1nn(CC(=O)Nc2cccc(C(F)(F)F)c2)c(=O)c2cccn12 35.5 µM [inhibitor, partial curve], CCC(=O)c1ccc(OCC(O)CN2CCc3ccccc3C2)cc1 (stereo not drawn) 22.4 µM [inhibitor, partial curve], Cc1ccc2c(CC(=O)OCc3nc(N)nc(Nc4ccccc4C)n3)coc2c1 14.1 µM [inhibitor, partial curve], CC(C)c1ccc(NC(=O)c2ccc(Br)o2)cc1 56.2 µM [inhibitor, single point], Nc1nnc(SCC(=O)c2ccccc2)s1 35.5 µM [inhibitor, single point], CCCC(C)C(=O)Nc1cc([N+](=O)[O-])ccc1Cl (stereo not drawn) 11.2 µM [inhibitor, partial curve], Nc1c(C(O)(C(F)(F)F)C(F)(F)F)cc(C(O)(C(F)(F)F)C(F)(F)F)c2ccccc12 39.8 µM [inhibitor, single point], CC(C)[C@H](NC(=O)OC(C)(C)C)c1nnc(S(=O)(=O)Cc2c(F)cccc2Cl)o1 28.2 µM [inhibitor, partial curve], Cc1sc(N)nc1C12CC3CC(CC(C3)C1)C2 12.6 µM [inhibitor, partial curve], N=C1c2ccccc2CN1NC(=O)CC12CC3CC(CC(C3)C1)C2 50.1 µM [inhibitor, single point], O=C1C2=C(SCCS2)C(=O)N1c1ccccc1 39.8 µM [inhibitor, partial curve], Cc1nnc2c3ccccc3c(Cl)nn12 25.1 µM [inhibitor, partial curve], Cc1ccc(NC(=O)Nc2nnc(SCC(=O)N3CCC(C)CC3)s2)cc1 20 µM [inhibitor, partial curve], CC(=O)CSc1ncnc2scc(-c3ccc(F)cc3)c12 28.2 µM [inhibitor, partial curve], CC1CN(C(=O)c2ccc(COc3ccc(C(C)C)cc3)o2)CC(C)O1 (stereo not drawn) 35.5 µM [inhibitor, partial curve], CCc1ccc(Nc2ncc3c(n2)CC(C)(C)CC3=O)cc1 15.8 µM [inhibitor, partial curve], COc1ccc(-n2cc(C(=O)NC(C)c3ccccc3)c3ccccc3c2=O)cc1 (stereo not drawn) 25.1 µM [inhibitor, partial curve], Cc1n[nH]c(=S)n1/N=C/c1ccc(-c2ccccc2[N+](=O)[O-])o1 39.8 µM [inhibitor, single point], COc1ccc2ccc(=O)oc2c1CC=C(C)C 44.7 µM [inhibitor, single point], Cc1ccc(NC(=O)Cn2cc(S(=O)(=O)N3CCCC3)c(S(=O)(=O)N3CCCC3)c2)cc1C 7.08 µM [inhibitor, full curve, poor fit], COc1ccc2c(c1)NC(=O)CC(c1ccccc1)=N2 39.8 µM [inhibitor, partial curve], COc1ccc(NC(=O)CSc2cc(C(=O)c3nccn3C)c3ccccc3n2)cc1 17.8 µM [inhibitor, partial curve], O=S(=O)(NCc1ccc(F)cc1)c1ccc2c(c1)OCCO2 35.5 µM [inhibitor, partial curve], COC(=O)C(NC(C)=O)(Nc1nc2c(C)cc(C)cc2s1)C(F)(F)F (stereo not drawn) 50.1 µM [inhibitor, single point], Cn1cnnc1SCC(=O)Nc1ccc2nc(SCc3ccccc3F)sc2c1 35.5 µM [inhibitor, partial curve], Cc1occc1-c1nnc(SCC(=O)Nc2ccccc2)n1Cc1ccccc1 39.8 µM [inhibitor, partial curve], Fc1ccccc1CNc1cc(Cl)cc(Cl)c1 4.47 µM [inhibitor, full curve], COc1ccc(CN2CCSCC2)cc1O 25.1 µM [inhibitor, partial curve], CC1(C)C2CCC1(C)C(NC(=O)/C=C/c1ccccc1)C2 (stereo not drawn) 15.8 µM [inhibitor, partial curve], Cc1ccc(OCCCC(=O)Nc2ccc(S(=O)(=O)Nc3cc(C)nc(C)n3)cc2)cc1 56.2 µM [inhibitor, single point], CC(=O)c1c(C)[nH]c(C(=O)COC(=O)CCSc2ccccc2)c1C 44.7 µM [inhibitor, partial curve], COc1ccc(NC(=O)c2cc(C3CC3)nc3c2c(C)nn3-c2ccc(C)cc2)cc1OC 4.47 µM [inhibitor, single point], Cc1cc2oc(=O)cc(CN3CCCCC3C)c2cc1Cl (stereo not drawn) 44.7 µM [inhibitor, single point], Cc1cccc(/C=C2\Sc3ccc(C(=O)N4CCOCC4)cc3N(C)C2=O)c1 35.5 µM [inhibitor, single point], O=C(CCl)Nc1ccc(Oc2cnc3ccccc3n2)cc1 28.2 µM [inhibitor, partial curve], Clc1ccc(-c2nnc(-c3ccccc3)nc2N2CCSCC2)cc1 17.8 µM [inhibitor, partial curve], Cc1ccc(SCCC(=O)N/N=C/c2cccnc2)cc1 28.2 µM [inhibitor, partial curve], CCCCN(C)S(=O)(=O)c1ccc(C(=O)N(CCN(C)C)c2nc3ccc(C)cc3s2)cc1 50.1 µM [inhibitor, single point], CC1=CC(C)(C)NC(=O)N1c1ccc(C)cc1 17.8 µM [inhibitor, partial curve], S=c1[nH]nc(CSCc2ccccc2Cl)n1-c1ccccc1 50.1 µM [inhibitor, single point], CCn1c(COc2cccc(C)c2)nc2ccccc21 39.8 µM [inhibitor, single point], O=c1c([N+](=O)[O-])c(NCCN2CCCCCC2)c2ccccc2n1-c1ccccc1 35.5 µM [inhibitor, single point], S=c1[nH]nc(-c2ccccc2Cl)n1Cc1ccccc1 35.5 µM [inhibitor, single point], O=C(NNC(=O)C1C2CCC(C2)C1C(=O)O)c1cccc(Cl)c1 (stereo not drawn) 25.1 µM [inhibitor, single point], Cn1cc(CN2CCc3c([nH]c4ccccc34)C2C2CCCCC2)cn1 (stereo not drawn) 22.4 µM [inhibitor, partial curve], O=C(CSc1nnc2c(n1)[nH]c1ccc(S(=O)(=O)N3CCOCC3)cc12)Nc1ccc(F)c(F)c1 25.1 µM [inhibitor, partial curve]

Activity change, negative = displacement, inactive:
CC1=NN(c2nc3ccccc3[nH]2)C(=O)C1Cc1ccccc1 (stereo not drawn) -11.2%, Brc1ccccc1-c1nnc2sc(Cc3ccccc3)nn12 8.19%, Cc1ccc(-c2nn3c(-c4ccc(C)cc4)nnc3c3ccccc23)cc1 0.92%, Cc1ccccc1C(=O)OCn1nnc2ccccc2c1=O -14.4%, CCC(=O)NS(=O)(=O)c1cccnc1Nc1ccc(Cl)cc1 -19.3%, COc1ccccc1-c1cc(C(F)(F)F)nc(S(=O)(=O)CCCC(=O)Nc2ccc(F)c(Cl)c2)n1 -19%, CN(C)c1ccc(CNC(=O)C2CCN(S(=O)(=O)c3cn(C)cn3)CC2)cc1 57%, COc1ccc2[nH]c(C(=O)N3CCc4ccccc4C3)c(C)c2c1 -12.8%, CCOc1ccc(Nc2c3ccccc3nc3ccccc23)cc1 0.798%, CC(=C\c1ccccc1)/C=C1/SC(=O)N(CCCC(=O)Nc2ccc(C(=O)O)cc2)C1=O -18.1%, CC(C)c1ccc(N(CC(=O)N2CCN(Cc3ccccc3)CC2)S(C)(=O)=O)cc1 -10%, O=c1c(N2CCCCC2)coc2ccccc12 -12.2%, O=C(c1ccc2c(c1)N(Cc1ccc(F)cc1)C(=O)c1ccccc1S2(=O)=O)N1CCCCCC1 -7.55%
